According to PubChem BioAssay AID2528 (National Center for Advancing Translational Sciences (NCATS), 2010):
Among all 350,000 compounds or so, about 700 (0.2%) were called active. Inconclusive results, whose numbers are uncertain, are shown with a selection of clear calls. The call rests on the fitted dose curve; in most records, active means well fitted inhibition curve with a large enough effect; inconclusive means small, poorly fitted or top-dose-only effect; inactive means flat fitted curve, though single readings scatter. Potencies of inconclusive entries are left out as doubtful fits. Where a structure was tested more than once in an assay, its records may differ in their call.

biological target: RecQ-like DNA helicase BLM (Homo sapiens) (UniProt P54132); experiment: qHTS Assay for Inhibitors of Bloom's syndrome helicase (BLM); details: recombinant BLM DNA unwinding, fluorescence dequenching; series mostly up to 56.1 µM; further: nearly all actives have a fitted effect of over 35% in size
Source text: Survival of cells and the faithful propagation of the genome depend on elaborate mechanisms of detecting and repairing DNA damage. Treatment of advanced cancer relies on radiation therapy or chemotherapy, which kill cancer cells by causing extensive DNA damage. It is often found, that cancer cells develop resistance to therapy through enhanced activity of DNA repair functions; this has led to an increased interest in developing drugs that interfere with DNA repair, which could sensitize cancer cells to conventional therapy.
This validation qHTS assay pertains to human BLM, which is important in resolving abnormal DNA structures formed during replication or homologous recombination. Shutting down the expression of BLM leads to chromosomal instability and higher radiation sensitivity in cultured cells.
The validation assay was a fluorescence quenching based kinetic qHTS for BLM Helicase DNA unwinding. The activity was measured as ATP-dependent separation of a 20-bp DNA duplex extended by 30-nt single-stranded tails (forked duplex). The forked DNA substrate was tagged with rhodamine fluorophore (carboxytetramethyl rhodamine, TAMRA) and BHQ-2 (Black Hole Quencher 2) dark quencher. Strand separation results in an increase in the fluorescence of TAMRA (excitation 525 nm, emission 598 nm). This substrate construct operates in a red-shifted region where very few compound library members have been noted to fluoresce (PubChem AIDs 593 and 594). An additional feature of the assay is the inclusion of 2.5 ug/ml poly (dIdC), to reduce interference by compounds such as DNA intercalators, a major source of false inhibitors.
Ian Hickson, University of Oxford
Opher Gileadi, Structural Genomics Consortium, University of Oxford
Screening Center PI: Austin, C.P.
Screening Center: NIH Chemical Genomics Center [NCGC]
Three uL of reaction buffer (25 mM Tris-HCl (pH 8.0), 5 mM NaCl, 2 mM MgCl2, 1mM DTT, 0.01% Tween- 20, and 2.5 ug/ml poly(dI-dC), including enzyme (50 nM BLM), were dispensed into a 1536-well Greiner black assay plate via solenoid-valve based nanoliter dispensers. Compounds (23 nl each in columns 5-48) and control (23 nl each in column 2 as dose-response) were transferred via a Kalypsys pintool equipped with a 1536-pin array. The plates were incubated for 15 min at room temperature, and then 1 ul of substrates (200 nM DNA and 2 mM ATP, final concentrations) was added to start the reaction. The plate was transferred into a ViewLux high-throughput CCD imager where the reaction progress was measured in a discontinuous kinetic mode (two reads spaced 2 hours apart, with intermediate room temperature incubation of the covered assay plate) by using standard red-fluorescence optics (excitation filter 525 nm, emission filter 598 nm). Enzyme-free and vehicle (DMSO) controls were included for signal normalization.
Potency means the concentration at half of the fitted maximal effect; tags describe the fitted curve by direction and shape.

UniProt P54132, sequence (P54132 whole entry, looked up): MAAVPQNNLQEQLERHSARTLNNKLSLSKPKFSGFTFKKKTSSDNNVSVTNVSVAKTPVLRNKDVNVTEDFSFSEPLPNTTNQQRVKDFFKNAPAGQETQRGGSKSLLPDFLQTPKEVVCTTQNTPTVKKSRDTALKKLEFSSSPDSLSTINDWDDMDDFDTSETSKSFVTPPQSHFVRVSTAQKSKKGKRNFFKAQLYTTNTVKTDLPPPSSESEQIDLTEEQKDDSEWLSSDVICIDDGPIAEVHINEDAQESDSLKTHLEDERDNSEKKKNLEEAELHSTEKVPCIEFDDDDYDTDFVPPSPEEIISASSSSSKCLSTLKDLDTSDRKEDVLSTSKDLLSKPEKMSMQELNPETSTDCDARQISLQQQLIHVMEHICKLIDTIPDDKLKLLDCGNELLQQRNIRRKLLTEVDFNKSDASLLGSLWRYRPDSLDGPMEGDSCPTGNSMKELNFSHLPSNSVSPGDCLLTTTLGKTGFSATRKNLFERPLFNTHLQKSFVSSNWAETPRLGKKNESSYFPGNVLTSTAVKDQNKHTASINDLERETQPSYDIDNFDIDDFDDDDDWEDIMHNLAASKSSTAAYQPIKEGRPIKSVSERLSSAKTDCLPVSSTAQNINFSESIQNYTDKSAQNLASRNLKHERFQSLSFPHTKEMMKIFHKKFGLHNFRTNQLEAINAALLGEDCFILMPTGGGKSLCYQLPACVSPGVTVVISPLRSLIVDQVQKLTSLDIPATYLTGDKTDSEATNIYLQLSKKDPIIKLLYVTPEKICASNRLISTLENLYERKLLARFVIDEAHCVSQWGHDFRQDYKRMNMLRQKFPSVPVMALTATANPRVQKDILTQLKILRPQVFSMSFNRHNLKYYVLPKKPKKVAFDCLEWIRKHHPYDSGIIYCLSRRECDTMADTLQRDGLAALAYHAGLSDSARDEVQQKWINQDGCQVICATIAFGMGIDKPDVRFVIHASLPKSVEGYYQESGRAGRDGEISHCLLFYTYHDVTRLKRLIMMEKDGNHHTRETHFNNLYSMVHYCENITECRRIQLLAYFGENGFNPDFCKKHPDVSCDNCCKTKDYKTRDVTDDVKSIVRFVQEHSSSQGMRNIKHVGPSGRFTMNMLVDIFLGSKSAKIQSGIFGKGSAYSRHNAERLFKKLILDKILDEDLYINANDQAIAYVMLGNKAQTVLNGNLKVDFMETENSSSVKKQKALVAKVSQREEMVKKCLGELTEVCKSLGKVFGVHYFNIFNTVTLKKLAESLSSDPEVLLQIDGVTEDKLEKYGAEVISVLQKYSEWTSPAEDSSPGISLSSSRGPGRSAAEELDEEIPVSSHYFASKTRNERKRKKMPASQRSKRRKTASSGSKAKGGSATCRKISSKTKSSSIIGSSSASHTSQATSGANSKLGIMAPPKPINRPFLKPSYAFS

Row | SMILES | Potency
1 | COC(=O)c1cc(OC)c(OC)cc1NC(=S)Nc1cc(Cl)ccc1OC | inactive
2 | COC(=O)c1cc(=O)c(O)c2c(O)c(O)ccc2c1 | inconclusive [inhibitor, partial curve]
3 | CCC1=NN2C(=N)/C(=C\c3ccc(SCc4ccco4)o3)C(=O)N=C2S1 | inconclusive [inhibitor, single point]
4 | O=C(O)COc1ccc(/C=N/NC(=O)c2ccc(-c3csc(Nc4ccc(Cl)cc4)n3)cc2)cc1 | active: 3.55 µM
5 | O=[N+]([O-])c1ccccc1N/N=C/c1cccc(O)c1O | inactive
6 | C[C@](N)(Cc1ccc(O)c(O)c1)C(=O)O | active: 17.8 µM
7 | O=C(CCCn1c(=O)[nH]c2ccsc2c1=O)N1CCN(c2cccc(C(F)(F)F)c2)CC1 | inactive
8 | O=C(O)C(c1ccccc1)N1C(=O)/C(=C\c2ccc(-c3cccc(Cl)c3)o2)SC1=S (stereo not drawn) | active: 22.4 µM
9 | Cc1ccc(CN(Cc2cc3cc4c(cc3[nH]c2=O)OCCO4)Cc2nnnn2Cc2ccco2)cc1 | inconclusive [inhibitor, single point]
10 | O=C(/C=C/c1ccco1)Nc1cccc(NC(=O)/C=C/c2ccco2)n1 | inconclusive [inhibitor, partial curve]
11 | Cc1[nH]n(-c2ncc(-c3ccc(Cl)cc3)s2)c(=O)c1C(c1ccc(Cl)cc1)C(C#N)C#N (stereo not drawn) | inconclusive [inhibitor, single point]
12 | Cc1cc2nc3c(=O)[nH]c(=O)nc-3n(C)c2cc1C=O | active: 15.8 µM
13 | CSCC[C@H](NC(=O)[C@H](CCC(N)=O)NC(=O)[C@H](CCCCN)NC(=O)[C@H](CCCNC(=N)N)NC(=O)[C@H](Cc1ccc(O)cc1)NC(=O)[C@H](CCCNC(=N)N)NC(=O)[C@H](CO)NC(=O)[C@H](Cc1ccc(O)cc1)NC(=O)[C@H](CO)NC(=O)[C@H](CC(=O)O)NC(=O)[C@@H](NC(=O)[C@@H](N)Cc1ccccc1)[C@@H](C)O)C(=O)N[C@@H](C)C(=O)N[C@H](C(=O)N[C@@H](CCCCN)C(=O)N[C@@H](CCCCN)C(=O)N[C@@H](Cc1ccc(O)cc1)C(=O)N[C@@H](CC(C)C)C(=O)N[C@@H](C)C(=O)N[C@@H](C)C(=O)N[C@H](C(=O)N[C@@H](CC(C)C)C(=O)NCC(=O)N[C@@H](CCCCN)C(=O)N[C@@H](CCCNC(=N)N)C(=O)N[C@@H](Cc1ccc(O)cc1)C(=O)N[C@@H](CCCCN)C(=O)N[C@@H](CCC(N)=O)C(=O)N[C@@H](CCCNC(=N)N)C(=O)N[C@H](C(=O)N[C@@H](CCCCN)C(=O)N[C@@H](CC(N)=O)C(=O)N[C@@H](CCCCN)C(N)=O)C(C)C)C(C)C)C(C)C | inconclusive [inhibitor, single point]
